From article PMC4780765
Results are given in words; binding and its absence hold for the method and conditions named. For some of these results: Binding seen in cells or lysates may run through a third protein. Some entries that bind do so weakly or less than the wild type.

Protein sequences, listed by entry. Tags and fused reporters are not part of them. Lines headed by an entry give the natural chain unless they say otherwise; changes in a name come on top. Chains listed by the source or under a name are the forms on record and can include a tag or linker. Residues count along the entry.
UniProt P13569: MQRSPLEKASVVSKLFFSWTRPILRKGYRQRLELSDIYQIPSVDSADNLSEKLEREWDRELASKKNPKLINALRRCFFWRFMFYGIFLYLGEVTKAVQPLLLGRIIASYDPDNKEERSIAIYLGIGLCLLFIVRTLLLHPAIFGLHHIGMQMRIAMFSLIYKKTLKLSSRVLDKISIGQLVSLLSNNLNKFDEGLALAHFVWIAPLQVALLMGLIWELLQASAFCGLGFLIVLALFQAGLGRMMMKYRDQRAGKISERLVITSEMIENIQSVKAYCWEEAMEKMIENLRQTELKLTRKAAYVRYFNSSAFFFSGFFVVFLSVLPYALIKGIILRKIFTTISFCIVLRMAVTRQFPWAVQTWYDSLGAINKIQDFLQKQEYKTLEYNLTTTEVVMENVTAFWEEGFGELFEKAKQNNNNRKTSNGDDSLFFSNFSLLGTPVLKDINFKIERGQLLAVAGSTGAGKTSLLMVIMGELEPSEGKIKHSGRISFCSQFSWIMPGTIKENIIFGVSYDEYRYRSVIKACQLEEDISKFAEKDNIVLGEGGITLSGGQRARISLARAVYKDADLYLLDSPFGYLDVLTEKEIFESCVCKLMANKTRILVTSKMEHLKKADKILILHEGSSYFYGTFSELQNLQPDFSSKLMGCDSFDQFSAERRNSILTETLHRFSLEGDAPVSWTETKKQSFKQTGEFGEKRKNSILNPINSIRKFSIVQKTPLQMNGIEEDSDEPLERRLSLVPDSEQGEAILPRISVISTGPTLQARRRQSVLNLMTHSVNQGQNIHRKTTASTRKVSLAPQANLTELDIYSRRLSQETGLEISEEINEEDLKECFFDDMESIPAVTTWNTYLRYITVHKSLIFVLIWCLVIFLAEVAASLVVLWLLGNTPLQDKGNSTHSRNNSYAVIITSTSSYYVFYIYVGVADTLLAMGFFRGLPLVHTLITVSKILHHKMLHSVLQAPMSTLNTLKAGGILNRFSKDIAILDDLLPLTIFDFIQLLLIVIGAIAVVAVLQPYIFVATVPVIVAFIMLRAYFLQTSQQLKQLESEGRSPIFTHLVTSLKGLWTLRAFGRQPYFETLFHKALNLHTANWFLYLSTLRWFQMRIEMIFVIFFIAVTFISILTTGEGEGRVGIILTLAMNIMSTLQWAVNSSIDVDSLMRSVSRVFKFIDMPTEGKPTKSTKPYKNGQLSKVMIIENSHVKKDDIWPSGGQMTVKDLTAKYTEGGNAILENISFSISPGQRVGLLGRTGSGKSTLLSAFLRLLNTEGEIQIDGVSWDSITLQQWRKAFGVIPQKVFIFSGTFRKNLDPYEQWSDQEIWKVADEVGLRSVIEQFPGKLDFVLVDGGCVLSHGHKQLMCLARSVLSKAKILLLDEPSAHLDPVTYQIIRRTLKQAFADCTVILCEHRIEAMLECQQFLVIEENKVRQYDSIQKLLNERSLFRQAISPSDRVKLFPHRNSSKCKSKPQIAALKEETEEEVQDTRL
untagged NBD1 (351–727): residues 351-727 of P13569

Columns and labels:
[1] = molecular target: nucleoside diphosphate kinase A (human (endogenous in 16HBE14o-)), P15531; experiment: co-IP; NDPK-A and NDPK-B immunoprecipitates from membrane and cytosol of airway epithelia, each probed for the other isoform; conditions: remark: other sources report otherwise
[2] = molecular target: human recombinant nucleoside diphosphate kinase B isoform (human) (UniProt P22392); experiment: SPR; BIAcore 3000, NDPK-B immobilised by amine coupling on CM5 (5561.5 RU), analyte injected in HBS-EP pH 7.4 at 10 μL/min for 2 min, 25°C; response read 20 s into the dissociation phase, blank flow cell subtracted; both purified
[3] = molecular target: untagged NBD1 (351–727) (human) (UniProt P13569); experiment: SPR; competition: 1 μg untagged NBD1 injected alone or together with peptide (10, 50 or 100 ng) over immobilised NDPK-B on CM5, HBS-EP, 25°C; response read 20 s into the dissociation phase; both purified
[4] = molecular target: cystic fibrosis transmembrane conductance regulator (human (endogenous in 16HBE14o-)) (UniProt P13569); experiment: co-IP; release by a synthetic peptide: CFTR or NDPK-B immunoprecipitates on beads from lysates of FSK/IBMX-stimulated 16HBE14o- cells incubated with peptide for 30 min at 30°C; release of the partner into the supernatant by immunoblot; only the binder purified

| binding [1] | binding [2] | binding [3] | binding [4] | Binder |
| --- | --- | --- | --- | --- |
| no binding | – | – | – | nucleoside diphosphate kinase B, P22392 1-152 (protein) MANLERTFIAIKPDGVQRGLVGEIIKRFEQKGFRLVAMKFLRASEEHLKQHYIDLKDRPFFPGLVKYMNSGPVVAMVWEGLNVVKTGRVMLGETNPADSKPGTIRGDFCIQVGRNIIHGSDSVKSAEKEISLWFKPEELVDYKSCAHDWVYE |
| – | no binding (tested: 200 ng) | binds | binds | VAMKFLRASEEHLKQHYID [peptide NDPK-B 36–54] |
